# Results reported in publication PMC12136788.
# Some of the results follow.
# B1: chr10:59467614:59467615:+_ENSMUSG00000044475_ENSMUST00000050516|mus_mus|FALSE|FALSE (ssRNA)
# RNA: GGGAGUUCUACAGUCCGACGAUCAUAGAAAUCCUCGUCUUCUUCAUGUUGGUACUGUUUCUCCUGGAUGGGAUUCUUUCUAUAAUUCCGUCCAUCGAACGUUACAAUCUGUGGGCGUAGAACAUCCAUGACAAAUGACGUUCCCAACAGAGGAUUGAGCAUCA
# B2: chr9:124914678:124914679:-_ENSG00000119421_ENST00000373768|hu_mus|FALSE|FALSE (ssRNA)
# RNA: GGGAGUUCUACAGUCCGACGAUCGGUUUUAUCGCACUGAGCCCCAUAGUGAUGGGCGGCAGCUUUAAGCACAGCUGAGCUGACUUUCACCUCCUCCACUUUCAGCUCUUCCAGAGUUGGCAGCUCCACUAUCCCCGGCAUGACCAACAGAGGAUUGAGCAUCA
# B3: chr4:57889662:57889663:+_ENSG00000047315_ENST00000314595|hu_hu|motif|central (ssRNA)
# RNA: GGGAGUUCUACAGUCCGACGAUCAUUGAGAGUUACCAUAACCUGAUCCACAAUGCCCGUCUCGCUAGUUCUGAGAAAAGUGCGGCAGUCUCUCUUGGUAUAGCGUCUAUUGGUGCUCUCCAAUUCAUCUUCAUUUUCAGGCAACAACAGAGGAUUGAGCAUCA
# B4: chr14:90871201:90871202:+_ENSG00000198668_ENST00000553542|hu_hu|FALSE|FALSE (ssRNA)
# RNA: GGGAGUUCUACAGUCCGACGAUCCCAAUACAUGCAGAUUUUGUGUGUGUGGACAGAAGGUACUUUUGACAUUCAGUUUUGCUAUAUAGAAACAGAAUGAAUAAAUGAACUUUUUUCUUUUUUCUUUUUUUUGCAAGAGGUAAGCAACAGAGGAUUGAGCAUCA
# B5: 69359715_69359835_4468_3pUTR_ENSMUSG00000027784_ENSMUST00000029355|mouse|control|control (ssRNA)
# RNA: GGGAGUUCUACAGUCCGACGAUCAAUCCCUGCCCCUGCCCUCUCACCCUAUCCCACCUGAGGAGGACAGAUCGCCAGGGGAGCAGCAGGGCUAGGGUUCAAGAGGGCCUGGGGCUGGCAUCAACUUAUUCCUCAAACACUGUACAACAGAGGAUUGAGCAUCA
# B6: chr17:27185601:27185602:+_ENSG00000132591_ENST00000254928|hu_hu|FALSE|FALSE (ssRNA)
# RNA: GGGAGUUCUACAGUCCGACGAUCGACCACACCUUCAGUGAGGGCUGCCGUGAGCUCCAGGAGAACUGACUUCUGCUUCAAACAAUCUACCUUGUUCAUGACCAGGACACUAGGGAUCUGGGAGUACUUGGUCAAGCACCUGAGCAACAGAGGAUUGAGCAUCA
# Molecular target: T1, UNK ZnF1-3 (human, UniProt Q9C0B0 31-174)
# T1 sequence: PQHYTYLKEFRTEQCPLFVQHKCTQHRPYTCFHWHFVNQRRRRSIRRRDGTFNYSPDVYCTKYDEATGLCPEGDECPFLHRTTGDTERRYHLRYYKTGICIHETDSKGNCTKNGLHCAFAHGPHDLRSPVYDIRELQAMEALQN
# Assay: nsRBNS (natural sequence RNA bind-n-seq); RBNS binding buffer (assumed for nsRBNS): 25 mM Tris pH 7.5, 150 mM KCl, 3 mM MgCl2, 0.01% Triton X-100, 500 ug/ml BSA, 20 U/ml SUPERase-In, 4 C; UNK is unkempt and MSI1 is Musashi-1; names of the RNAs are library labels; protein concentration not given here; high values mean tight binding
row,Binder,binding signal
1,B1,0.336 enrichment R
2,B2,0.76 enrichment R
3,B3,0.558 enrichment R
4,B4,1.09 enrichment R
5,B5,1.55 enrichment R
6,B6,1.45 enrichment R
